These results are taken from paper PMC6212790.

The list shows a part of the results. At the low end of the ranking, values are background and their order means little.

This assay concerns the target T1, GST-Rok-C97-191 (UniProt O34857).
T1 sequence: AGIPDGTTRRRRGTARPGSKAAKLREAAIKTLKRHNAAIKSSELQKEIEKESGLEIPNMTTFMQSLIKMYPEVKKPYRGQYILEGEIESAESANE
Kind of assay: protein binding microarray.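 Also: rank score from −0.5 (least bound) to 0.5 (best bound).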 The settings on record: Rok is a gene silencer of Bacillus subtilis; high values mean tight binding; most listed sequences are background and not binding sites; double strand, one strand shown.
Regarding AATAGGCT, the binding signal came out at 0.0839 E-score.

The sequence CCGGATGA displayed a binding signal of -0.00889 E-score.

Regarding CCTTTCGC, the binding signal was -0.136 E-score.

The sequence GAAGCGTC registered a binding signal of -0.188 E-score.

Regarding CCGGAGTA, the binding signal was determined as 0.00891 E-score.

As for AAGTCCTA, the binding signal came to 0.0893 E-score.

AAAGTTGT: the binding signal is 0.0601 E-score.

In turn, CGCCGCCA registered a binding signal of -0.235 E-score.

Sequence GGAGAGCC had a binding signal of -0.332 E-score.

CGCGGACA gave a binding signal of -0.116 E-score.

CCGTGCAC came in with a binding signal of -0.158 E-score.

Sequence CAAAGCAA returned a binding signal of 0.102 E-score.

For the sequence CTAAGGAG, the binding signal is -0.0167 E-score.

Regarding CGAATCGA, the binding signal is -0.00685 E-score.

CATGGGAG displayed a binding signal of -0.152 E-score.

With TTCCCCAA, the binding signal worked out at 0.0499 E-score.

Consider AAAAGCTC, for which the binding signal is -0.0186 E-score.

The sequence AAGGGGAC returned a binding signal of -0.16 E-score.

CGCGCCAG came in with a binding signal of -0.214 E-score.

GTTGGTTA registered a binding signal of 0.179 E-score.

ATCTCTTA returned a binding signal of 0.0317 E-score.

CATCCGCC displayed a binding signal of -0.204 E-score.

For the sequence ACAGCAAG, the binding signal is -0.0495 E-score.

AGAGTGAC: the binding signal was -0.024 E-score.

The sequence GCTGTCGA came in with a binding signal of -0.0863 E-score.

ATAGTTCC came in with a binding signal of 0.143 E-score.

Sequence CTGGACCA showed a binding signal of -0.188 E-score.

AAAATGAC: the binding signal was found to be 0.0327 E-score.

Regarding CACCGCGG, the binding signal was -0.113 E-score.

The sequence CACCCAGG had a binding signal of -0.332 E-score.

Regarding ATGCAGTG, the binding signal is 0.023 E-score.

Consider CGCGATTC, for which the binding signal was 0.0103 E-score.

For the sequence GAGGATAA, the binding signal turned out to be 0.123 E-score.

The sequence ACACTATA displayed a binding signal of 0.258 E-score.

The sequence CTTTTATA displayed a binding signal of 0.236 E-score.

TAGGCCTA showed a binding signal of 0.177 E-score.

For AGACTAGG, the binding signal was -0.00307 E-score.

In turn, CCGTTATA came in with a binding signal of 0.119 E-score.

In turn, ATCAGGTG yielded a binding signal of 0.162 E-score.

In turn, ACAGAACG returned a binding signal of 0.0639 E-score.

As to AGCCTCCT, the binding signal was -0.331 E-score.

ACCCGAGC showed a binding signal of 0.004 E-score.

The sequence ACACAGCG came in with a binding signal of -0.0473 E-score.

Take CACCAATG: the binding signal is -0.2 E-score.

In turn, ACTCTGCG gave a binding signal of 0.103 E-score.

As to AGTTCCAG, the binding signal was 0.0851 E-score.

For the sequence GATAAACA, the binding signal was -0.00599 E-score.

On to TATTGGGA, for which the binding signal is -0.0798 E-score.

The sequence TACATGCA gave a binding signal of 0.282 E-score.

In turn, CTGTTCGA came in with a binding signal of 0.177 E-score.

CGTGGATA: the binding signal amounted to 0.0229 E-score.

With AAGATGTG, the binding signal is -0.0937 E-score.

CGCGATAG showed a binding signal of 0.188 E-score.

AAGGGGTG registered a binding signal of -0.271 E-score.

CATCAGCG: the binding signal was -0.0549 E-score.

GAACACAA registered a binding signal of -0.0616 E-score.

In turn, AAACGCCC yielded a binding signal of -0.157 E-score.

For CCTGATTC, the binding signal is -0.0645 E-score.

CCATTTTA had a binding signal of 0.172 E-score.

In the case of AAGAACGA, the binding signal was determined as 0.105 E-score.

Consider CTGTAACC, for which the binding signal is -0.00734 E-score.

AAGACCCA returned a binding signal of -0.0967 E-score.

In the case of CGACCCCG, the binding signal is -0.315 E-score.

In the case of TCCGGCAA, the binding signal is -0.0311 E-score.

On to CAAGGGAG, for which the binding signal is -0.169 E-score.

CGAAACAC showed a binding signal of 0.027 E-score.

For AAACAAGA, the binding signal was 0.025 E-score.

Sequence CTCGGAAG came in with a binding signal of -0.17 E-score.

The sequence AAGTCCCG registered a binding signal of -0.22 E-score.

For the sequence AAACTTAA, the binding signal was found to be 0.0956 E-score.

GCGGCCGA yielded a binding signal of -0.352 E-score.

ATCCAGCA had a binding signal of -0.031 E-score.

As for GAGAAGCC, the binding signal was -0.251 E-score.

CGCCAAAC returned a binding signal of -0.224 E-score.

In turn, CTCATATC displayed a binding signal of 0.0444 E-score.

CACTAAAA had a binding signal of 0.299 E-score.

Take CTTGATCC: the binding signal is -0.0474 E-score.

For CAAGGAAA, the binding signal was -0.191 E-score.

Take ACTTGCGA: the binding signal is -0.0408 E-score.

Regarding ACGTCCTG, the binding signal is -0.0421 E-score.

AATGTTAC returned a binding signal of 0.108 E-score.

As to GTCGTGAA, the binding signal is -0.104 E-score.

TCCGTCAA had a binding signal of -0.0899 E-score.

In the case of CTCGGAGC, the binding signal worked out at 0.0375 E-score.

AAATTCAT showed a binding signal of 0.155 E-score.

In turn, AAGGCCTG yielded a binding signal of -0.231 E-score.

As for AATATGCG, the binding signal is 0.0732 E-score.

The sequence CCGCTGAA yielded a binding signal of -0.0489 E-score.

Regarding GACGCTTA, the binding signal is -0.0575 E-score.

The sequence GGAGGCTA displayed a binding signal of -0.193 E-score.

As to CCTGGACC, the binding signal is -0.168 E-score.

On to ATTTGGTA, for which the binding signal turned out to be 0.226 E-score.

Consider CAAGGGGA, for which the binding signal is -0.179 E-score.

Turning to CTAAGTAA, the binding signal was found to be 0.266 E-score.

Take AAAGATGA: the binding signal was -0.0439 E-score.

The sequence GCCCTCGA registered a binding signal of -0.232 E-score.

Sequence ACGGGAGA gave a binding signal of -0.12 E-score.

Sequence CCAAACCC came in with a binding signal of -0.222 E-score.

For GGCCAACA, the binding signal was -0.212 E-score.

Sequence GAGTGCAA displayed a binding signal of 0.0161 E-score.

As for AATAAGCT, the binding signal was 0.0671 E-score.

Take CTTGGCCA: the binding signal is -0.0866 E-score.

As to CGGGACCA, the binding signal is -0.262 E-score.

AGACGACG returned a binding signal of -0.128 E-score.

CTCGTCAG showed a binding signal of -0.0744 E-score.

Regarding ACCCTAGC, the binding signal was 0.0226 E-score.

Turning to AGTGGCGG, the binding signal was -0.0551 E-score.

The sequence GCAATCCC yielded a binding signal of -0.104 E-score.

Turning to CGTTGGTC, the binding signal was -0.247 E-score.

In turn, CAACGCCC returned a binding signal of -0.225 E-score.

In turn, CCAACGTC displayed a binding signal of -0.222 E-score.

Sequence ATTCACCG displayed a binding signal of -0.181 E-score.

As for ACTATAGT, the binding signal turned out to be 0.411 E-score.

GTCTAATA displayed a binding signal of 0.166 E-score.

Sequence CTAGCGTA gave a binding signal of 0.0171 E-score.

As for AAGTCGCA, the binding signal is -0.0762 E-score.

Regarding ACGACGCG, the binding signal was -0.0881 E-score.

Sequence ACAACCCA returned a binding signal of 0.011 E-score.

In the case of GTAACTGA, the binding signal came to 0.203 E-score.

AAGGAGAA showed a binding signal of -0.0912 E-score.

As to AACGTAGG, the binding signal was found to be 0.0823 E-score.

As for ATTTGTTA, the binding signal was found to be 0.308 E-score.

In turn, CAACACTC returned a binding signal of -0.0681 E-score.

CCTCAGAC showed a binding signal of -0.179 E-score.

GCAGGGCA registered a binding signal of -0.207 E-score.

CTCAAGAC displayed a binding signal of -0.206 E-score.

With CACTCGCG, the binding signal is -0.00827 E-score.

AATGGTAT gave a binding signal of 0.328 E-score.

ATGTCCTC registered a binding signal of -0.0441 E-score.

AGTATAAA registered a binding signal of 0.289 E-score.

Sequence AATGGCCC displayed a binding signal of 0.109 E-score.

With ACGGGGCT, the binding signal is -0.144 E-score.

The sequence ATATATAT came in with a binding signal of 0.443 E-score.

In turn, TGAGAACA registered a binding signal of -0.0288 E-score.

The sequence TCCCACCA registered a binding signal of -0.245 E-score.

TAGTCGAA: the binding signal was found to be 0.0574 E-score.

Take CGGAGGGC: the binding signal was -0.276 E-score.

Regarding AACAGCTT, the binding signal amounted to 0.0324 E-score.

GGGTGTGA registered a binding signal of -0.225 E-score.

Consider AATAGTCT, for which the binding signal is 0.0533 E-score.

In the case of ACAAGTCA, the binding signal is -0.0107 E-score.

On to ATGGCTTG, for which the binding signal is -0.101 E-score.

Sequence AGGTGAAT came in with a binding signal of -0.0354 E-score.

The sequence CCACGCCG had a binding signal of -0.326 E-score.

CACTATAC showed a binding signal of 0.0932 E-score.

In turn, CGGGGCCA displayed a binding signal of -0.0415 E-score.

In turn, ACATCCGT displayed a binding signal of 0.0993 E-score.

For CCACCTCA, the binding signal was -0.113 E-score.

Take CCTTGCAC: the binding signal is -0.11 E-score.

The sequence CGAATTTA came in with a binding signal of 0.187 E-score.

As for ATGTACGA, the binding signal turned out to be 0.226 E-score.

For the sequence AAATCGTA, the binding signal was determined as 0.167 E-score.

In turn, CATGCACG had a binding signal of -0.127 E-score.

For the sequence CGTCAAGC, the binding signal was 0.00259 E-score.

TTTCCAAA: the binding signal worked out at 0.0983 E-score.

For the sequence ACGCTCAC, the binding signal was -0.0887 E-score.

Take GGACGGGA: the binding signal is -0.208 E-score.

In turn, GGGTTAAA returned a binding signal of 0.202 E-score.

Take TATACATA: the binding signal stood at 0.401 E-score.

Regarding ACTAGGTA, the binding signal was 0.251 E-score.

As to CGATCAAC, the binding signal worked out at 0.0491 E-score.

The sequence CGAAGAAG showed a binding signal of -0.184 E-score.

With AAATCAGA, the binding signal was determined as 0.0403 E-score.

Regarding CCGCGGAG, the binding signal was -0.19 E-score.

Turning to ACCGAATC, the binding signal is -0.0933 E-score.

On to ACCGTTCA, for which the binding signal is 0.218 E-score.

Consider CACCCTAC, for which the binding signal is -0.0195 E-score.

ATTCTAGC displayed a binding signal of 0.249 E-score.

Sequence CCTAGCAA had a binding signal of 0.105 E-score.

As for ACAGGAAA, the binding signal was determined as 0.0683 E-score.

For the sequence TTCCGGAA, the binding signal was -0.206 E-score.

As to CATACTGG, the binding signal was 0.179 E-score.
